Test results published in the supplement of paper PMC3334620.
Whole data set: some 33,000 sequences, median “E-score (-0.5 to 0.5)” near -0.017, cut for the highest 2% near 0.3. The list shows a part of the results.

What follows are sequences tested against T1, Sut1 (UniProt P53032) (assay: PBM E-score (8-mer binding enrichment) (E-score (-0.5 to 0.5)); higher = stronger / more preferred TF binding; most listed sequences are background and not binding sites). Details: protein concentration: 200 nM; construct: GST-full length.
T1 sequence: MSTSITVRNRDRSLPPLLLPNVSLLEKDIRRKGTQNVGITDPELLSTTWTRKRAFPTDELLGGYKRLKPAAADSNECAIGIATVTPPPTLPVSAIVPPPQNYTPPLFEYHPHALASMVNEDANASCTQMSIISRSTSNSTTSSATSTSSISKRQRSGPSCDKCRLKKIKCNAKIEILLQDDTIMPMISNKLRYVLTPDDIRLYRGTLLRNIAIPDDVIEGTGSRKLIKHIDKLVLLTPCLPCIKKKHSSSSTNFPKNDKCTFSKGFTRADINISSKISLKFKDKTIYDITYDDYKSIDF
Method in brief: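 Universal all-10-mer Agilent arrays, fresh or stripped once, were converted to double-stranded form by primer extension. GST-tagged yeast transcription factors from PURExpress in vitro transcription/translation, full-length or DNA-binding domain only, were applied at about 100-200 nM and detected with fluorescent anti-GST. After masliner normalisation, the Universal PBM Analysis Suite scored each ungapped eight-base word together with its reverse complement by E-score.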

| Sequence | PBM E-score |
| --- | --- |
| AAGTGAGG | -0.098 |
| ATGACTCA | 0.00053 |
| AGTGGCAC | -0.256 |
| CGGTAACC | -0.0833 |
| ACCGCTCC | -0.16 |
| ACAGTCAT | -0.239 |
| AACAGTCA | -0.138 |
| ATGAAGAG | 0.0879 |
| GTTCAAAC | 0.232 |
| TAAAAGAA | 0.166 |
| TGGTAGAA | -0.0199 |
| CAGGCGGG | -0.281 |
| CCCTACCG | -0.233 |
| CATACTGC | -0.0947 |
| CAAGAATA | 0.171 |
| ATCTACGC | 0.184 |
| GATCCGTA | -0.02 |
| CCTTGAGC | -0.0674 |
| ATGGAAGG | -0.171 |
| TGCACACA | -0.0331 |
| CTTCGATC | -0.125 |
| CATGGCCG | 0.0218 |
| CACAACGG | -0.214 |
| AAGAACAA | 0.238 |
| GGAGAGAA | 0.127 |

| Sequence | PBM E-score |
| --- | --- |
| AAACAGGC | -0.143 |
| ATGGTACC | -0.0626 |
| AAGCCGTC | -0.0505 |
| GAACCTGC | -0.0908 |
| AGATTTAC | 0.216 |
| ACTGTCAT | 0.0632 |
| CTTTACCA | 0.0254 |
| CCGTGCCG | -0.0966 |
| CCACGAAG | -0.204 |
| ATCCGAGC | 0.0537 |
| CACGCCAG | -0.277 |
| AGACTAAA | 0.169 |
| CGTACAAA | 0.0952 |
| AGAATGTG | -0.174 |
| CCTGCCCG | -0.366 |
| GTGAGATA | 0.0859 |
| GGTGTTTA | 0.0773 |
| GAGCAAGA | -0.016 |
| CAGCCTCG | -0.21 |
| GTTCGGGA | 0.14 |
| CCGAGAGG | -0.0135 |
| CAGAAGAG | -0.331 |
| ACTATCTA | 0.155 |
| ATTCCGTG | 0.273 |
| GAGAAGAC | -0.123 |

| Sequence | PBM E-score |
| --- | --- |
| AGGAAGAT | 0.143 |
| AAATTTGT | 0.27 |
| CCGTCGCG | -0.143 |
| TCAGGCGA | -0.166 |
| ATTAGTGC | 0.231 |
| GCTGGCAA | -0.129 |
| GAACAATA | 0.0829 |
| AATAGGGA | -0.142 |
| CACAGCGG | -0.217 |
| AGGAGTCG | -0.0901 |
| GCGACTGA | -0.0635 |
| GTGTTAGA | 0.109 |
| AAATCTAG | 0.00795 |
| ATGCCAAC | 0.0406 |
| CAACGATA | 0.0729 |
| CAGCACAG | -0.0827 |
| AGATCCGC | 0.00517 |
| ATTATAAC | 0.0928 |
| CTGGGCCA | -0.256 |
| CCATGCCC | -0.326 |
| CTCACGCA | 0.00102 |
| CCTGGATC | -0.26 |
| CTGCGCAG | -0.112 |
| ATCTTCTC | 0.167 |
| CGAACCTA | 0.12 |

| Sequence | PBM E-score |
| --- | --- |
| ACCCGCAA | -0.197 |
| ACTTGTTA | 0.16 |
| CGTACAAC | 0.068 |
| ATGCACGC | 0.00659 |
| CAAGAAAC | 0.215 |
| ACATCAGT | 0.00838 |
| CGGTGTTA | 0.163 |
| ATGCGGGC | -0.135 |
| CCCCCCGA | -0.258 |
| ATGGTCCG | 0.203 |
| ACATTTCG | 0.171 |
| GTCCTGCA | -0.155 |
| AATAAACT | 0.221 |
| GACCTATC | -0.0265 |
| GCCCTAGA | -0.103 |
| CATGAGCG | -0.278 |
| GAAAGTTA | 0.149 |
| AAGCACGC | -0.122 |
| ATGAGTAG | 0.161 |
| CGAGACAG | -0.039 |
| ACGTTGTC | -0.211 |
| GGTTGGAA | -0.162 |
| ACCAGGCT | -0.232 |
| GGCCACTA | -0.179 |
| CAACCCAA | 0.00017 |

| Sequence | PBM E-score |
| --- | --- |
| GCCCCGTA | -0.0818 |
| TGCCCACA | -0.207 |
| AGTCGCAG | -0.0966 |
| TCCTACAA | 0.101 |
| ATTCCATA | 0.138 |
| CGCCCGAA | -0.101 |
| AAACTCAG | -0.0771 |
| CCACCATC | -0.164 |
| CCTCAGTC | -0.145 |
| AGGGCGCG | -0.163 |
| AGCAATTC | 0.156 |
| CTTCTTAA | 0.173 |
| AAATGCTC | 0.0867 |
| CTTCAACA | 0.0834 |
| GATGAAAA | 0.131 |
| AGGAGCCC | -0.164 |
| AAGTCGAC | 0.13 |
| AACGGTCG | -0.192 |
| CCTCGGCG | -0.0382 |
| TGGGCTAA | -0.0377 |
| AAAAAAAG | 0.199 |
| AAAACACA | 0.0925 |
| CACCGCGA | -0.0965 |
| CAACGGTG | -0.269 |
| ATGCAGCA | -0.134 |

| Sequence | PBM E-score |
| --- | --- |
| AAAATTTC | 0.189 |
| ACGTCAAT | -0.135 |
| AGATTGGG | 0.00543 |
| CCTTCACC | -0.231 |
| TGAATTAA | 0.13 |
| ACGGGGTG | -0.143 |
| CAACTATA | 0.132 |
| ACCGTCCA | -0.00866 |
| AGGAATTC | -0.203 |
| AAAACGCT | 0.0462 |
| ACGAGCCG | -0.146 |
| CGACGGCC | -0.227 |
| ACAAGCTA | -0.192 |
| GATCGCCC | -0.259 |
| ACTAGGTC | -0.0189 |
| TCTTATCA | 0.269 |
| ATTACCCA | 0.00533 |
| AATGTTTA | 0.225 |
| CGATTTAC | 0.108 |
| AAAGTGCA | 0.0236 |
| AAAAAGGC | 0.0807 |
| ACCCATAC | -0.173 |
| ACTGCCCT | -0.0307 |
| ACACTGCG | -0.0541 |
| CAAACGGA | 0.302 |

| Sequence | PBM E-score |
| --- | --- |
| AAGGAGGG | -0.201 |
| CTACCTCC | -0.0796 |
| AATGGTAT | 0.0823 |
| AGACACGC | -0.129 |
| GTAACTCA | -0.112 |
| GAGACGCC | -0.0839 |
| AGCCCAGG | -0.337 |
| GACTTGTA | 0.0238 |
| TCCAGACA | -0.13 |
| CCTCCTCA | -0.245 |
| AACTGAGT | 0.0495 |
| ACAGCTGT | -0.0756 |
| TAGCGAAA | 0.135 |
| TAGCTACA | -0.0801 |
| TCGGCCGA | 0.323 |
| ATCAAAGC | 0.108 |
| ATGTGATG | -0.0614 |
| GGAGAAAC | 0.191 |
| TCACCGGA | 0.397 |
| CCCCTTTC | -0.152 |
| CCCCACAC | -0.238 |
| CAAGAGAC | -0.24 |
